From PubChem BioAssay AID485281 (National Center for Advancing Translational Sciences (NCATS), 2010)
Where “and” joins values, the source holds several entries; their conditions need not be identical. Equal entries are not always repeated. The whole screen tested about 350,000 compounds, of which about 260 (0.074%) were called active. This list was built around the results that the source calls inconclusive (neither active nor inactive); the mix of calls is not that of the screen. Calls follow the shape of the dose curve; as a rule, active = well fitted inhibition curve with a large enough effect; inconclusive = small, poorly fitted or top-dose-only effect; inactive = no such curve, though single readings can be large or run the other way. Where the call is inconclusive, the potency comes from a doubtful curve fit.

Each compound was assayed against Ferritin light chain (Equus caballus) (UniProt P02791) (assay: qHTS Assay for Identification of Novel General Anesthetics). Details: apoferritin/1-aminoanthracene competitive binding, fluorescence; series mostly up to 77.5 µM.
Procedure, shortened: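 Probe: 1-aminoanthracene (50% saturated, PBS). Protein: horse-spleen apoferritin, 10 uM. Incubation: 10 min, room temperature. Detection: 380 nm excitation, 535 nm emission. Analysis: normalized response, four-parameter Hill.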
Also: nearly all actives have a fitted effect of over 20% in size.
Potency is read from the fitted curve at half-maximal effect; tags tell the direction and shape of the fitted curve.

Chain of UniProt P02791 (P02791 whole entry, looked up): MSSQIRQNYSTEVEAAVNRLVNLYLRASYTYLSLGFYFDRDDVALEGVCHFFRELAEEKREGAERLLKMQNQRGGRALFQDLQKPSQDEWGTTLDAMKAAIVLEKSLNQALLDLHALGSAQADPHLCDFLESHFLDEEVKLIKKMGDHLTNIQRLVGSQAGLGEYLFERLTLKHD

Potency, inactive:
Cc1ccc(C(=O)Nc2cccc(-c3nc4ccccc4o3)c2)c(Cl)c1
O=C(NCc1ccc(F)cc1)c1ccccc1OCc1ccccc1
CC1CCN(CC(=O)NCc2ccccc2)CC1
COc1cccc(Cn2c(=O)n(Cc3ccco3)c(=O)c3oc4ccccc4c32)c1
O=C(NCCCN1CCOCC1)c1cc2c(=O)[nH]c3ccccc3c2s1
CCCN(C(=O)c1noc2c1COc1ccc(C)cc1-2)c1ccc(Cl)c(Cl)c1
COc1cc(NC(=O)CC2C(=O)N(c3cccc(C)c3)C(=O)N2Cc2ccc(F)cc2)cc(OC)c1 (stereo not drawn)
CC1=C(C#N)C(c2cn(-c3ccccc3)nc2-c2cccs2)C(C#N)=C(C)N1
COc1ccc(Cl)cc1NC(=O)CN1C(=O)COc2ccc(S(=O)(=O)NC3CCCC3)cc21
COc1ccc(-c2nc(CNS(=O)(=O)c3ccccc3)cs2)cc1
O=C(NC(=S)NCc1ccc(F)cc1)c1ccccc1

Potency, inconclusive:
CC1CCCC(NC(=O)CC2Nc3ccccc3NC2=O)C1C (stereo not drawn) 8.91 µM [inhibitor, full curve]
COCCN1C(=O)c2[nH]nc(-c3cc(C)ccc3O)c2C1c1ccc(C(C)C)cc1 (stereo not drawn) 14.1 µM [inhibitor, partial curve]
O=C(O)/C=C/C(=O)Nc1ccc(-n2nccc2C(F)(F)F)cc1 50.1 µM [inhibitor, single point]
CCc1nnc(NC(=O)CSc2nnc(-c3ccoc3C)n2-c2ccc(C)cc2)s1 11.2 µM [inhibitor, partial curve]
O=C(c1ccc(CSc2nc3ccncc3n2Cc2cccc(F)c2)cc1)N1CCCCCC1 28.2 µM [inhibitor, partial curve]
Cc1cncn1CCc1nc2c3ccccc3nc(SCC(=O)Nc3cccc(Cl)c3)n2n1 20 µM [inhibitor, partial curve] and 10 µM [inhibitor, partial curve]
Cc1ccc(S(=O)(=O)NC2CCCC2)cc1C 50.1 µM [inhibitor, partial curve]
COc1ccccc1/C=C/C(=O)OCC(=O)NCCC1=CCCCC1 50.1 µM [inhibitor, single point]
COc1ccc(/C=N/NC(=O)C(Cc2c[nH]c3ccccc23)NC(=O)OCC(C)C)cc1[N+](=O)[O-] (stereo not drawn) 14.1 µM [inhibitor, partial curve]
Cc1c(Cl)cccc1N/C(=N/S(=O)(=O)c1cccs1)c1ccccc1 25.1 µM [inhibitor, partial curve]
OCC1(CCOc2ccccc2)CCN(C2Cc3ccccc3C2)CC1 22.4 µM [inhibitor, partial curve]
CC(C)Sc1nc2ccccc2n1CC(=O)NCc1ccc2c(c1)OCO2 14.1 µM [inhibitor, partial curve]
O=C1C2C(C(=O)N1/N=C/c1cc([N+](=O)[O-])c(O)cc1O)C1C=CC2C12CC2 (stereo not drawn) 31.6 µM [inhibitor, partial curve]
Cc1ccc2c(CC(=O)Nc3ccc(N4CCN(C)CC4)cc3C)coc2c1 25.1 µM [inhibitor, partial curve]
COc1ccccc1N1C(=O)C2CC(C)=C(C)CC2C1=O (stereo not drawn) 31.6 µM [inhibitor, partial curve]
Cc1cc(NC(=O)c2coc(=O)c(Br)c2)ccc1C(C)C 25.1 µM [inhibitor, partial curve]
CC(C)CCC(=O)N1CCOC1=O 50.1 µM [inhibitor, single point]
CCc1ccc(C(=O)c2cncc(Br)c2)cc1 12.6 µM [inhibitor, partial curve]
O=C(Nc1nn[nH]n1)C12CC3CC(CC(C3)C1)C2 5.62 µM [inhibitor, full curve]
CCc1ccc(NC(=S)N2CCCC(C(F)(F)F)C2)cc1 (stereo not drawn) 39.8 µM [inhibitor, single point]
CCn1c(CNC(=O)C23CC4CC(CC(C4)C2)C3)nnc1SCC(=O)Nc1ccccc1 31.6 µM [inhibitor, partial curve]
COc1cccc(-c2nnc3n2N=C(c2ccc(OC)cc2OC)CS3)c1 31.6 µM [inhibitor, partial curve]
Cc1cc(O)c(C2(O)C(=O)Nc3cc(Br)ccc32)cc1C (stereo not drawn) 35.5 µM [inhibitor, single point]
O=C(Nc1ccccn1)c1csc2c1CCCC2 25.1 µM [inhibitor, partial curve]
COc1ccc(-c2nc(-c3ccccc3)c(-c3cc([N+](=O)[O-])ccc3C)[nH]2)cc1O 31.6 µM [inhibitor, partial curve]
O=C(Nc1ccc(C(=O)N2CCCc3ccccc32)cc1)c1cccs1 25.1 µM [inhibitor, partial curve]
O=C(CNC(=O)c1ccccc1)N/N=C/C=C/c1ccccc1 6.31 µM [inhibitor, partial curve]
O=C1C(NS(=O)(=O)c2ccccc2)=C(N2CCN(c3ccc(F)cc3)CC2)C(=O)c2ccccc21 10 µM [inhibitor, partial curve]
O=[N+]([O-])c1ccccc1S(=O)(=O)NCc1ccco1 44.7 µM [inhibitor, single point]
OCCOCCNc1ncnc2c1cnn2-c1ccccc1 50.1 µM [inhibitor, single point]
COc1ccc(-n2nc3c(N4CCCC(C(=O)NCc5cccc(F)c5)C4)nnc(C)c3c2C)cc1 (stereo not drawn) 50.1 µM [inhibitor, single point]
Cc1ccc(Sc2ccc(NC(=O)CCl)cc2)cc1C 22.4 µM [inhibitor, partial curve]
